For this experiment, the target named is T1, IL-21/IL-15RαSu/Fc fusion protein (human, glycosylated (CHO cell produced)).
T1 construct: In the Western blot it is the reduced, SDS-denatured single chain
Put plainly: co-expression in CHO cells; complex purified by Protein A and size exclusion chromatography.

B1: IL-7/IL-15N72D fusion protein (other)
chain: DCDIEGKDGKQYESVLMVSIDQLLDSMKEIGSNCLNNEFNFFKRHICDANKEGMFLFRAARKLRQFLKMNSTGDFDLHLLKVSEGTTILLNCTGQVKGRKPAALGEAQPTKSLEENKSLKEQKKLNDLCFLKRLLQEIKTCWNKILMGTKEH[… about 120 residues …]
modifications: glycosylated (CHO cell produced)
notes: One of the two chains of hIL7/IL21/TxM; In the Western blot it is the reduced, SDS-denatured chain
Regarding B1, the binding result is given as “binds”.

Source of the values: patent publication US20190300591A1 (ALTOR BIOSCIENCE, published 2019).
